# Experimental data reported in PubChem BioAssay AID1865 (National Center for Advancing Translational Sciences (NCATS), 2009).
# Hit rate of the full screen: of about 280,000 compounds, about 540 (0.19%) were called active. The inconclusive results got no clear call from the source; some entries with a clear call stand among them for comparison. The call rests on the fitted dose curve; in most records, active means well fitted activation curve with a large enough effect; inconclusive means small, poorly fitted or top-dose-only effect; inactive means flat fitted curve, though single readings scatter. Where the call is inconclusive, the potency comes from a doubtful curve fit.
# Test: Quantitative High-Throughput Screen for Regulators of Epigenetic Control; further: nearly all actives have a fitted effect of over 60% in size; on GFP activation: % of control where 0% means no effect
# Conditions: murine LDR cells, GFP reporter derepression, 30 h; GFP activation: at 53.9 µM (top of the series)
# In short: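 GFP-positive cell count by laser-scanning cytometry (objects 20–120 um) after 30 h, 37 C compound exposure of murine LDR cells; reporter is CMV-GFP integrated at a silenced locus, inducible by HDAC or DNMT inhibitors.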
# Potency means the concentration at half of the fitted maximal effect; tags describe the fitted curve by direction and shape.
SMILES,GFP activation,Potency
CCCC(=O)Nc1cc(C)c(O)c(-c2nc3ncccc3o2)c1,inactive: -1.08%,
CCOC(=O)CC(=O)CSc1nc2nc(C)cc(C)n2n1,inactive: 0%,
Cc1cc(NC(=O)c2ccc(Br)o2)cc(-c2nc3ccccc3o2)c1O,,"inconclusive: 31.6 µM [activator, single point]"
c1ccc2nc(-c3nc4ccccc4[nH]3)ccc2c1,inactive: 0%,
COc1ccc(CC(=O)Nc2cccc(-c3csc(C)n3)c2)cc1,inactive: -0.952%,
Cc1c(N=N/C(C(=O)Nc2ccccc2)=C(/O)c2ccccc2)c(=O)n(-c2ccccc2)n1C,,"inconclusive: 35.5 µM [activator, single point]"
COc1cc2cc(CN(Cc3nnnn3Cc3ccco3)C3CCCCC3)c(=O)[nH]c2cc1OC,inactive: 0.0168%,
CCOc1cc(-c2ccc(OC(=O)c3ccccc3F)cc2)cc(=O)c2c(C)oc(C)c12,,"inconclusive: 28.2 µM [activator, single point]"
O=C(O)CCCN(Cc1cccc(Br)c1)S(=O)(=O)c1ccc(Br)cc1,inactive: -6.12%,
Oc1ccc(COCc2ccccc2)c2cccnc12,,"inconclusive: 5.01 µM [activator, single point]"
Cc1ccc(NC(=O)CSc2ncc3c(n2)-c2ccccc2N(Cc2cccc(F)c2)S3(=O)=O)cc1F,,"inconclusive: 35.5 µM [activator, single point]"
N#CC1=C(N)Oc2c(ccc3cccnc23)C1c1cccnc1 (configuration not stated),,"inconclusive: 31.6 µM [activator, single point]"
Cc1cc(C)cc(Oc2nc3c(C)cccn3c(=O)c2/C=C(\C#N)c2nc3ccccc3[nH]2)c1,,active: 7.08 µM
C=CCNC(=S)N(CC)c1cccc2ccccc12,inactive: 1.14%,
Cc1ccc(NC(=O)Cn2c(=O)c(C)nc3ccccc32)cc1,,"inconclusive: 31.6 µM [activator, single point]"
CCN1CCN(C(=O)c2cnn(-c3ccc(F)cc3)c2-n2cccc2)CC1,inactive: -3.53%,
CCC(=O)N1CCN(c2ccc(NC(=O)c3ccc([N+](=O)[O-])o3)cc2Cl)CC1,,"inconclusive: 1.58 µM [activator, partial curve]"
Cc1cc(/C=N/NC(=O)Cn2c3ccccc3c(=O)c3ccccc32)c(C)n1-c1ccc(Cl)cc1,inactive: 0.971%,
Fc1cccc(Nc2nc3ccccc3n3nnnc23)c1,,"inconclusive: 20 µM [activator, single point]"
Cc1ccc(-c2nc3ccccc3s2)cc1NC(=S)NC(=O)c1cccc2ccccc12,inactive: -0.962%,
COc1ccc(CNC(=O)c2cc3c(=O)[nH]c4ccccc4c3s2)cc1,,"inconclusive: 31.6 µM [activator, single point]"
O=C(NC(=S)Nc1cc(-c2nc3ccccc3[nH]2)ccc1Cl)c1ccc2c(c1)OCO2,,"inconclusive: 22.4 µM [activator, single point]"
Nc1ccc(NC(=O)NC2CCCCC2)cc1[N+](=O)[O-],,"inconclusive: 31.6 µM [activator, single point]"
O=C(Nc1ncnc2c1ncn2C1OC(COC(=O)c2ccccc2)C(F)C1O)c1ccccc1 (configuration not stated),inactive: 0.758%,

SMILES,GFP activation,Potency
Cc1cccc(-c2noc(CN(C(=O)COc3ccc(Br)cc3C)C(C)C)n2)c1,inactive: 0%,
O=C(Nc1ccc(N2CCN(C(=O)c3ccco3)CC2)cc1)c1ccco1,inactive: -0.24%,
CN1/C(=C\C=C2/C(=O)Oc3ccccc3C2=O)C(C)(C)c2ccccc21,,active: 14.1 µM
COC(=O)c1ccccc1COn1c(=O)c(C)[n+]([O-])c2ccccc21,,"inconclusive: 31.6 µM [activator, single point]"
Cc1ccc(N=Nc2ccc(O)c3ncccc23)cc1,,"inconclusive: 5.62 µM [activator, single point]"
Clc1ccc(-c2csc(=Nc3cccnc3)n2CCCn2ccnc2)cc1Cl,inactive: -0.366%,
CCOc1ccc(-n2c(C)cc(C(=O)CCl)c2C)cc1,,"inconclusive: 35.5 µM [activator, single point]"
CCC(=O)N1CC2(CC(c3cccc(NC(=O)COc4ccc(Cl)cc4)c3)=NO2)C[C@@H]1C(N)=O (some centres not stated),inactive: -1.61%,
Nc1ncnc2c1ncn2[C@@H]1O[C@H](COP(=O)(O)OP(=O)(O)O)[C@@H](O)[C@H]1O,,inactive
COC(=O)c1ccc(CN2C(=O)C3CCCCC3C2=O)o1 (configuration not stated),,"inconclusive: 35.5 µM [activator, single point]"
Cc1ccc2cc(CN(Cc3ccco3)C(=S)NCC3CCCO3)c(=O)[nH]c2c1 (configuration not stated),inactive: 0.0322%,
CC(=O)N1c2ccccc2CC1C(=O)N1CCN(c2ccc(F)cc2)CC1 (configuration not stated),,"inconclusive: 3.16 µM [activator, single point]"
Cc1nn2c(NCc3ccccn3)c3c(nc2c1-c1ccccc1)CCC3,,active: 22.4 µM
Cc1ncc(/C=C2\C(=O)Nc3ccccc32)[nH]1,,"inconclusive: 25.1 µM [activator, single point]"
COc1ccc(-c2noc(C3CC(=O)N(c4cc(C)cc(C)c4)C3)n2)cc1 (configuration not stated),inactive: 0%,
O=C(CCCCCN1C(=O)c2cccc3cccc(c23)C1=O)NO,,"inconclusive: 7.94 µM [activator, partial curve]"
CCOC(=O)C=C(C(=O)OCC)C(=O)OCC,,"inconclusive: 31.6 µM [activator, single point]"
CCOC(=O)C1CCCN(c2ncnc3c2cnn3-c2ccc(C)c(Cl)c2)C1 (configuration not stated),inactive: -1.45%,
CCOC(=O)CCCCC(=O)c1[nH]c(=O)[nH]c1C[n+]1ccc(C)cc1,inactive: 11.5%,
C/C(=N\NC(=S)Nc1c(C)cccc1C)c1ccc(OC(F)F)cc1,,"inconclusive: 20 µM [activator, single point]"
C=Cc1ccc(CSc2nc(-c3ccc(OC)cc3)nc3c2Cc2c(CO)cnc(C)c2O3)cc1,,"inconclusive: 14.1 µM [activator, single point]"
N#C/C(=C\c1ccc(N2CCOCC2)o1)c1ccccc1,,active: 11.2 µM
COCCn1cnc2c(c1=O)c1nc3ccccc3nc1n2/N=C/c1ccc(OC)c(OC)c1,,"inconclusive: 14.1 µM [activator, single point]"
CC(C)C[C@H](NC(=O)c1[nH]cnc1C(=O)N[C@@H](C)c1ccccc1)C(=O)OC(C)(C)C,inactive: 11.9%,

SMILES,GFP activation,Potency
COCCNC(=S)N/N=C/c1ccc(-c2ccc([N+](=O)[O-])cc2)o1,,"inconclusive: 31.6 µM [activator, single point]"
COCCN(Cc1cc2cc3c(cc2nc1Cl)OCO3)C(=O)c1ccc(C)cc1,inactive: 1.05%,
Cc1cc2nc3c(=O)n(C)c(=O)n(C)c3nc2cc1N=CN(C)C,,"inconclusive: 35.5 µM [activator, single point]"
CCN1C/C(=C/c2ccc(N3CCOCC3)cc2)C(=O)/C(=C/c2ccc(N3CCOCC3)cc2)C1,,"inconclusive: 31.6 µM [activator, single point]"
CN(C(=O)CSc1nnc2[nH]c(=O)cc(-c3ccccc3)n12)c1ccccc1,,"inconclusive: 0.004 µM [activator, full curve, poor fit]"
O=C(Nc1ccc(F)c(F)c1)C1CCCN(S(=O)(=O)c2cccc3nonc23)C1 (configuration not stated),,"inconclusive: 31.6 µM [activator, single point]"
Cc1cnc(NC(=O)CN2CCN(c3ccccn3)CC2)s1,,"inconclusive: 17.8 µM [activator, single point]"
Cc1cc(C)n(CC(=O)NC2C(=O)N3C(C(=O)O)=C(CSc4nnc(C)s4)CSC23)n1 (configuration not stated),inactive: -4.07%,
N#CCCn1cc(/C=C2\NC(=S)N(c3ccccc3)C2=O)c(-c2ccc(-c3ccccc3)cc2)n1,,"inconclusive: 20 µM [activator, single point]"
COC(=O)c1ccccc1NC(=S)NC(=O)c1ccc(C)cc1,inactive: 0%,
COc1cc(Nc2nc3ccccc3n3nnnc23)cc(OC)c1OC,,"inconclusive: 31.6 µM [activator, single point]"
O=C(/C=C/c1cccc(O)c1)c1cccnc1,,"inconclusive: 25.1 µM [activator, single point]"
Cc1cc(NC(=O)CSc2nc(-c3cccnc3)ccc2C#N)no1,,"inconclusive: 35.5 µM [activator, single point]"
O=c1oc2ccccc2nc1/C=C(\O)c1ccccc1,,"inconclusive: 14.1 µM [activator, partial curve]"
CCNC(=S)NNC(=O)CSc1nc2ccccc2n1C,,"inconclusive: 31.6 µM [activator, single point]"
Cc1ccc(C(=O)N(Cc2ccco2)Cc2ccco2)cc1,inactive: 3.53%,
COc1ccc(N/N=C(/C)c2cnnc(-c3ccccc3)n2)cc1,,"inconclusive: 31.6 µM [activator, single point]"
COc1ccc(S(=O)(=O)c2c(Nc3c(C)cccc3C)sc(C(=O)c3ccc4c(c3)OCO4)c2N)cc1,inactive: 3.39%,
COc1cc(/C=N\Nc2ccc([N+](=O)[O-])cc2)ccc1OCC(=O)Nc1ccc(C)c(C)c1,,active: 6.31 µM
CCOc1ccccc1NC(=O)C1CCN(S(=O)(=O)c2cc(Br)cc3c2N(C(C)=O)CC3)CC1,,"inconclusive: 25.1 µM [activator, single point]"
CCN(CC)CCOC(=O)C(Cc1cccc2ccccc12)CC1CCCO1 (configuration not stated),inactive: -2.35%,
Cc1nc2c(c(=O)n1CCC1=CCCCC1)c1nc3ccccc3nc1n2/N=C/c1ccccc1,,"inconclusive: 14.1 µM [activator, single point]"
CCNC(=O)c1c(NC(=O)Cc2coc3ccc(CC)cc23)sc2c1CCCC2,,"inconclusive: 20 µM [activator, single point]"
CCN(CC)c1ccc(/C=C2\CCC(/C=N/NC(=O)c3ccc(=O)n(C)c3)=C2N2CCOCC2)cc1,,"inconclusive: 31.6 µM [activator, single point]"
